About 25,000 (6.9%) of roughly 360,000 compounds were called active. The shares of active, inactive and inconclusive entries below differ from those in the screen. Calls follow the shape of the dose curve; as a rule, active = well fitted inhibition curve with a large enough effect; inconclusive = small, poorly fitted or top-dose-only effect; inactive = flat fitted curve, though single readings scatter. Potencies of inconclusive entries are doubtful fits and often do not repeat.
Target: Luciferin 4-monooxygenase (Photinus pyralis) (UniProt P08659)
Experiment: qHTS profiling assay for firefly luciferase inhibitor/activator using purifed enzyme and Km concentrations of substrates (counterscreen for miR-21 project); also: nearly all actives have a fitted effect of over 55% in size
Conditions: purified FLuc, luminescence inhibition; series mostly up to 57.5 µM
Method in brief: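 Purified P. pyralis luciferase, 10 nM final, with Km-level 10 uM D-luciferin and 10 uM ATP in 50 mM Tris acetate pH 7.5, 10 mM Mg acetate, 0.01% Tween-20, 0.05% BSA; 6-point qHTS titration about 60 µM downward; luminescence read.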
Potency is read from the fitted curve at half-maximal effect; tags tell the direction and shape of the fitted curve.

Chain of UniProt P08659 (P08659 whole entry, looked up): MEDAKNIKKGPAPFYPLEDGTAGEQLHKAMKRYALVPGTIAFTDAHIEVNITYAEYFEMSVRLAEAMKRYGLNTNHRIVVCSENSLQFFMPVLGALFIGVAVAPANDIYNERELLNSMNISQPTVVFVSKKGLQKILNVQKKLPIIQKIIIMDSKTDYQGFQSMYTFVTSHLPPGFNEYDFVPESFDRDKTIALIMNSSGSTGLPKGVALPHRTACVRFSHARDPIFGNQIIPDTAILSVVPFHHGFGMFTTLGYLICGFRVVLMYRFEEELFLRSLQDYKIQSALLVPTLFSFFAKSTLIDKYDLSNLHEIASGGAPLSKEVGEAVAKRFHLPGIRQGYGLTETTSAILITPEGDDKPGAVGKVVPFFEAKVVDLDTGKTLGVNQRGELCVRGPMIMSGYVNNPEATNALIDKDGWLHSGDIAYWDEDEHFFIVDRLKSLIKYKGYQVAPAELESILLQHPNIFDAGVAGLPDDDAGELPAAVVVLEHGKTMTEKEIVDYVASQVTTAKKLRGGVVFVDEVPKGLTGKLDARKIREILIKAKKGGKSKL

SMILES	Potency
COc1ccc(C(=O)Nc2cc(C)on2)cc1	active: 6.75 µM
COc1ccc(CNc2nc3nc(C)c(Cl)c(=O)n3[nH]2)cc1	inconclusive: 37.9 µM [inhibitor, single point]
CCOC(=O)CC(=O)CSc1ncnc2c1nnn2-c1ccccc1	inconclusive: 21.3 µM [inhibitor, single point]
CSc1ccc(CC2C(=O)Nc3ccccc32)cc1 (stereo not drawn)	inconclusive: 19 µM [inhibitor, partial curve]
COC(=O)[C@@H]1C[C@@]2(O)[C@@H](O)[C@@H](O)[C@@H](O)C[C@H]2N1Cc1cc(OC)cc(OC)c1	inactive
Cc1ccc(S(=O)(=O)NC(C)(C)CSc2nnc(Nc3ccccc3)s2)cc1	inactive
Cc1nc(C)c(-c2ccc(SCC(=O)Nc3ccc(C)c(Cl)c3)nn2)s1	inconclusive: 3.38 µM [inhibitor, full curve]
Cc1cccc(-n2c(C)nc3cc(C(=O)NC4CCCCCC4)ccc32)c1	inconclusive: 37.9 µM [inhibitor, partial curve, poor fit]
O=C(NC12CC3CC(CC(C3)C1)C2)C1CC(=O)N(c2ccc(Br)cc2)C1 (stereo not drawn)	inactive
COc1cc(NC(=O)Nc2cccc(C(C)=O)c2)cc(OC)c1OC	inconclusive: 23.9 µM [inhibitor, single point]
CCOc1ccc(-c2nc(SCC(=O)NCCCOC)c(-c3ccccc3)[nH]2)cc1	inconclusive: 21.3 µM [inhibitor, partial curve, poor fit]
C#CCN1C(=O)C2(OCCO2)c2ccccc21	inactive
CC1CC(C)CN(c2ncnc3c2cnn3-c2ccc(Cl)cc2)C1 (stereo not drawn)	active: 2.13 µM
COc1cc(C(=O)OCc2cc(=O)n3nc(C(C)C)sc3n2)cc(OC)c1OC	inactive
O=C(NCCCN1CCOCC1)c1cc(-c2ccc(Cl)cc2)on1	inconclusive: 23.9 µM [inhibitor, partial curve, poor fit]
CC1CCC2(CC1)N=C(c1ccccc1)C(=O)N2CC(=O)Nc1ccc(F)c(Cl)c1 (stereo not drawn)	inactive
CCOC(=O)c1cccc(NS(=O)(=O)c2cc3[nH]c(=O)c(=O)[nH]c3cc2C)c1	inconclusive: 21.3 µM [inhibitor, partial curve, poor fit]
c1ccc2c(-c3nn4nnnc4c4ccccc34)cccc2c1	inconclusive: 21.3 µM [inhibitor, single point]
COc1cccc(CNC(=O)c2ccc3c(c2)nc2n3CCCCC2)c1OC	inconclusive: 26.9 µM [inhibitor, partial curve]
COc1cccc(CNC(=O)COCc2cc(-c3ccc4c(c3)OCO4)on2)c1	inconclusive: 26.9 µM [inhibitor, partial curve]
CCC(CC)C(=O)Nc1cccc(C(=O)NCCc2ccccc2)c1	inconclusive: 37.9 µM [inhibitor, partial curve, poor fit]
O=C(N/N=C/c1ccccn1)c1cccc(NC(=O)c2ccc(Cl)cc2)c1	inconclusive: 26.9 µM [inhibitor, partial curve]
Cc1ccc2c(c1C)NC(C(=O)O)C1CC=CC21 (stereo not drawn)	inconclusive: 16.9 µM [inhibitor, partial curve]
C#CCOc1ccc(C2C(C#N)=C(N)Oc3cc(O)ccc32)cc1 (stereo not drawn)	inactive
Cc1cc(CNC(=O)Nc2ccc3c(c2)OCO3)nn1C	inconclusive: 37.9 µM [inhibitor, partial curve, poor fit]

SMILES	Potency
c1cncc(-c2nc3c(ccc4ccccc43)[nH]2)c1	active: 10.7 µM
CC1CCc2nc(NC(=O)C3CCCO3)sc2C1 (stereo not drawn)	active: 2.13 µM
COc1ccc(/C=N/NC(=O)c2ccc(N(C)S(=O)(=O)c3ccccc3)cc2)cc1	inconclusive: 12 µM [inhibitor, partial curve]
Cc1ccccc1CNC(=O)c1sc2ncnc(N(C)C3CCCCC3)c2c1C	inactive
COc1ccccc1NC(=O)N(Cc1ccco1)Cc1cc2ccc(C)c(C)c2[nH]c1=O	inconclusive: 30.1 µM [inhibitor, partial curve, poor fit]
O=C(O)CCC(=O)NNC(=O)c1cccc(Cl)c1	inactive
Cc1oc(-c2cccc(Cl)c2)nc1CN1CCCC(C(=O)NCc2ccc(Cl)cc2)C1 (stereo not drawn)	inconclusive: 10.7 µM [inhibitor, partial curve, poor fit]
O=C(CCn1cccn1)Nc1ccc2c(c1)OCCO2	inconclusive: 26.9 µM [inhibitor, single point]
CC1CCN(CCCNC(=O)c2ccc3c(Cl)c4c(nc3c2)CCCC4)CC1	inactive
Cc1ccc(C2=Nc3ccccc3NC(C)(c3ccc(C)o3)C2)o1 (stereo not drawn)	inconclusive: 37.9 µM [inhibitor, partial curve, poor fit]
CCOc1ccccc1Nc1nc(-c2cccnc2)cs1	inconclusive: 19 µM [inhibitor, single point]
Cc1cccc(NC(=O)c2sc(-n3nc(C)c(CCC(C)C)c3C)nc2C)c1C	inactive
CC1(C(=O)N2CC3(CC(c4cccc(NC(=O)COc5ccc(Cl)cc5)c4)=NO3)C[C@@H]2C(N)=O)CC1 (stereo partly drawn)	active: 21.3 µM
COC(=O)CNC(=O)COC(=O)c1cc(SC)ccc1Cl	inactive
Cn1cnnc1SCC(=O)Nc1nc(-c2ccccc2)cs1	inconclusive: 2.69 µM [inhibitor, full curve]
O=C(NNC(=O)c1cc(-c2cccnc2)nc2ccccc12)Nc1ccc(Cl)cc1	active: 23.9 µM
COc1ccc(-c2ccc(-c3nnc(-c4ccncc4)o3)cc2)cc1	inconclusive: 19 µM [inhibitor, single point]
CCC(=O)Nc1nnc(/C=C/c2ccccc2)s1	inconclusive: 6.01 µM [inhibitor, partial curve]
COCc1nnc(NC(=O)c2cc3ccccc3o2)s1	active: 19 µM
CCOC(=O)c1c(NC(=O)c2ccccc2)sc2c1CCc1ccccc1-2	inconclusive: 23.9 µM [inhibitor, partial curve]
CCCN1CCC(=O)N([C@H](CSc2ccc(OC)cc2)c2ccccc2)CC1	inconclusive: 19 µM [inhibitor, partial curve]
N/C(=N\OC(=O)/C=C/c1ccccc1)c1ccccn1	active: 0.675 µM
CCCCn1nc(NC(=O)CC)c2cc3cc(OC)ccc3nc21	inactive
Cc1cccc(CNC(=O)CN2C(=O)CCCc3ccccc32)c1	inactive
O=C(O)C1CCN(C(=O)CSc2nc3ccccc3c(=O)n2-c2ccc(Cl)cc2)CC1	inactive

SMILES	Potency
CCc1cccc(C)c1NC(=O)C1CCN(S(=O)(=O)Cc2ccccc2)CC1	inconclusive: 21.3 µM [inhibitor, partial curve]
Cc1ccc(Nc2nc(Nc3ccc(C)c(C)c3)nc(N3CCOCC3)n2)cc1C	inactive
CCc1nc(SCc2ccc([N+](=O)[O-])cc2)n[nH]1	inconclusive: 30.1 µM [inhibitor, partial curve, poor fit]
CCN(Cc1nc2cc(Cl)ccc2c(=O)[nH]1)C(=O)c1cccc(NC(=O)c2cccs2)c1	inconclusive: 37.9 µM [inhibitor, partial curve, poor fit]
CN(CC(=O)Nc1ccc(Cl)c(C(F)(F)F)c1)C(=O)c1ccc(OCC2CCCO2)cc1 (stereo not drawn)	inactive
COc1cc(/C=N/OCC(=O)Nc2cc(C)on2)ccc1OCc1ccccc1	inconclusive: 15.1 µM [inhibitor, partial curve, poor fit]
Cn1c(C(=O)N2CCc3ccccc3C2)cc2oc3ccccc3c21	active: 10.7 µM
O=C(CN1C(=O)c2ccccc2S1(=O)=O)c1ccccc1F	active: 10.7 µM
CCn1cc(C(=O)NCCCOC)c(=O)c2cc(S(=O)(=O)N(C)C3CCCCC3)ccc21	inactive
CC(C)c1ccc(NC(=S)NNc2ccc(Cl)c(C(=O)O)c2)cc1	inconclusive: 30.1 µM [inhibitor, partial curve, poor fit]
COc1cccc(Oc2nccc(N(C)C)c2C#N)c1	inconclusive: 23.9 µM [inhibitor, single point]
Oc1ccc(-c2cnc(-c3ccc(O)cc3)nc2)cc1	active: 1.07 µM
COc1ccc(-c2nc3ccc(C)cn3c2Nc2ccc3c(c2)OCO3)cc1	inconclusive: 42.6 µM [inhibitor, partial curve, poor fit]
O=C(Nc1ccc(OC(F)(F)F)cc1)c1ccc2nccnc2c1	inconclusive: 21.3 µM [inhibitor, single point]
Cc1cccc(OCCC(=O)NNC(=O)c2ccoc2C)c1	inactive
CCOc1ccc(C(=O)Nc2nnc(SCC(=O)NCC3CCCO3)s2)cc1OCC (stereo not drawn)	inconclusive: 12 µM [inhibitor, partial curve]
Cn1ncc2c(Nc3cccc(Cl)c3)nc(Nc3cccc(Cl)c3)nc21	inconclusive: 37.9 µM [inhibitor, partial curve, poor fit]
O=C(CSc1nccn1Cc1ccc(F)cc1)Nc1ccc2c(c1)OCO2	inactive
C/C(=N\NC(=O)c1ccc(Cl)cc1)c1cccc(NC(=O)C(C)C)c1	inconclusive: 23.9 µM [inhibitor, single point]
Cc1nnc(SCC(=O)Nc2nc3c(s2)CC(C)CC3)s1 (stereo not drawn)	inconclusive: 13.5 µM [inhibitor, partial curve]
CC(=O)Nc1ccc2nc3c(=O)n(C)c(=O)n(C)c3nc2c1	inactive
COC(=O)C1C(=O)c2c([nH]c(C(=O)OC3CCCCC3)c2C)CC1C (stereo not drawn)	active: 1.69 µM
CCCNC(=O)OCC12CC3CC(CC(C3)C1)C2	inconclusive: 15.1 µM [inhibitor, partial curve, poor fit]

— PubChem BioAssay AID588342 (National Center for Advancing Translational Sciences (NCATS), 2011)
